Experimental data published in patent publication US20150071942A1, “COMBINATION THERAPY OF ANTI-MIF ANTIBODIES AND CHEMOTHERAPEUTICS” (Baxter Healthcare SA, priority 2012, published 2015).

T1: redMIF (Homo sapiens, UniProt P14174)
T1 sequence (P14174 1-115): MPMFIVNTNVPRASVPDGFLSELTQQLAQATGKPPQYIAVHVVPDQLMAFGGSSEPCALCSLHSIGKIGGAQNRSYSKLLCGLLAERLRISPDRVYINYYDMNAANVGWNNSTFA

T2: oxMIF (Homo sapiens, UniProt P14174)
T2 sequence (P14174 2-115 limits assumed): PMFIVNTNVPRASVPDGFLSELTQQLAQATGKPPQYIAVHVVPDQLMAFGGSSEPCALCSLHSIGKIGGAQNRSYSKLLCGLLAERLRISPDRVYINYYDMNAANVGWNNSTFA

B1: RAB9: anti-MIF antibody, IgG4 heavy chain SEQ ID NO: 5, light chain SEQ ID NO: 1; DSM 25113/25111 (antibody)
heavy: EVQLLESGGGLVQPGGSLRLSCAASGFTFSIYSMNWVRQAPGKGLEWVSSIGSSGGTTYYADSVKGRFTISRDNSKNTLYLQMNSLRAEDTAVYYCAGSQWLYGMDVWGQGTTVTVSSASTKGPSVFPLAPCSRSTSESTAALGCLVKDYFPEPVTVSWNSGALTSGVHTFPAVLQSSGLYSLSSVVTVPSSSLGTKTYTCNVDHKPSNTKVDKRV[here human IgG4 Fc with S228P (EU numbers) without letters]
light: DIQMTQSPSSLSASVGDRVTITCRSSQRIMTYLNWYQQKPGKAPKLLIFVASHSQSGVPSRFRGSGSETDFTLTISGLQPEDSATYYCQQSFWTPLTFGGGTKVEIKRTVAAPSVFIFPPSDEQLKSGTASVVCLLNNFYPREAKVQWKVDNALQSGNSQESVTEQDSKDSTYSLSSTLTLSKADYEKHKVYACEVTHQGLSSPVTKSFNRGEC
modifications: Heavy chain of RAB9; Light chain of RAB9
B2: RAB4: anti-MIF antibody, IgG4 heavy chain SEQ ID NO: 6, light chain SEQ ID NO: 2; DSM 25112/25110 (antibody)
heavy: EVQLLESGGGLVQPGGSLRLSCAASGFTFSIYAMDWVRQAPGKGLEWVSGIVPSGGFTKYADSVKGRFTISRDNSKNTLYLQMNSLRAEDTAVYYCARVNVIAVAGTGYYYYGMDVWGQGTTVTVSSASTKGPSVFPLAPCSRSTSESTAALGCLVKDYFPEPVTVSWNSGALTSGVHTFPAVLQSSGLYSLSSVVTVPSSSLGTKTYTCNVDHKPSNTKVDKRV[here human IgG4 Fc with S228P (EU numbers) without letters]
light: DIQMTQSPGTLSLSPGERATLSCRASQGVSSSSLAWYQQKPGQAPRLLIYGTSSRATGIPDRFSGSASGTDFTLTISRLQPEDFAVYYCQQYGRSLTFGGGTKVEIKRTVAAPSVFIFPPSDEQLKSGTASVVCLLNNFYPREAKVQWKVDNALQSGNSQESVTEQDSKDSTYSLSSTLTLSKADYEKHKVYACEVTHQGLSSPVTKSFNRGEC
modifications: Heavy chain of RAB4; Light chain of RAB4
B3: RAB0: anti-MIF antibody, IgG4 heavy chain SEQ ID NO: 7, light chain SEQ ID NO: 3; DSM 25115/25114 (antibody)
heavy: B2 heavy with I31W, V52Y, F57R
light: B2 light
modifications: Heavy chain of RAB0; Light chain of RAB0
B4: RAM9: fully human anti-MIF (anti-oxMIF) antibody; heavy chain SEQ ID NO: 11, light chain SEQ ID NO: 12; DSM 25860/25859 (antibody)
heavy: EVQLLESGGGLVQPGGSLRLSCAASGFTFSIYSMNWVRQAPGKGLEWVSSIGSSGGTTYYADSVKGRFTISRDNSKNTLYLQMNSLRAEDTAVYYCAGSQWLYGMDVWGQGTTVTVSSASTKGPSVFPLAPSSKSTSGGTAALGCLVKDYFPEPVTVSWNSGALTSGVHTFPAVLQSSGLYSLSSVVTVPSSSLGTQTYICNVNHKPSNTKVDKRV[here human IgG1 Fc without letters]
light: B1 light
modifications: RAM9hc; RAM9lc
notes: fully human anti-MIF (anti-oxMIF) antibody; DSM 25860/25859
B5: RAM4: anti-MIF (anti-oxMIF) antibody; heavy chain SEQ ID NO: 13, light chain SEQ ID NO: 14; DSM 25862/25861 (antibody)
heavy: EVQLLESGGGLVQPGGSLRLSCAASGFTFSIYAMDWVRQAPGKGLEWVSGIVPSGGFTKYADSVKGRFTISRDNSKNTLYLQMNSLRAEDTAVYYCARVNVIAVAGTGYYYYGMDVWGQGTTVTVSSASTKGPSVFPLAPSSKSTSGGTAALGCLVKDYFPEPVTVSWNSGALTSGVHTFPAVLQSSGLYSLSSVVTVPSSSLGTQTYICNVNHKPSNTKVDKRV[here human IgG1 Fc without letters]
light: B2 light
modifications: RAM4hc; RAM4lc
notes: anti-MIF (anti-oxMIF) antibody; DSM 25862/25861

How the values were obtained:
redMIF = molecular target: T1, redMIF; assay: Differential binding of the antibodies to redMIF (ELISA or Biacore); conditions: for binding of recombinant MIF proteins to coated antibody: Biacore 3000, native HBS-EP buffer without addition of ProClin300; for binding to redMIF: MIF in its reduced state
Description: (§1) The anti-oxMIF antibodies described in this invention are able to discriminate between ox and red MIF, which are generated by mild oxidation or reduction, respectively. The anti-oxMIF antibodies are useful to specifically detect oxMIF. Discrimination between these conformers is assessed by ELISA or surface plasmon resonance. Both techniques can be performed as well known to a person skilled in the art and as described below.
(§2) The antibodies were coated on a CM5 (=carboxymethylated dextran) chip and recombinant MIF protein, pre-incubated with 0.2% Proclin300, were injected. (Proclin300 consists of oxidative isothiazolones that stabilize the oxMIF structure).
(§3) The antibodies of the invention, as defined hereinabove and hereinafter, have the same specificities. They thus also show similar results in the experiments as carried out by the present inventors.

oxMIF = molecular target: T2, oxMIF; assay: Differential binding of the antibodies to oxMIF (ELISA or Biacore)
Description: as §1, §2, §3

[1] = test system: BxPC3 human pancreatic cancer cells; assay: Orthotopic BxPC3 xenograft model for pancreatic cancer in nude mice (survival); assay type: in vivo
Description: Control groups were left untreated (left and right panel, dotted black line) or were treated with a control human monoclonal antibody (Control IgG, left panel, solid grey line) or with gemcitabine alone (Gemcitabine, left panel, solid black line). The survival curves represent the points in time when animals had to be sacrificed in accordance with UK Home Office Guidance.
BxPC3 cells are derived from a human pancreatic adenocarcinoma and grow inside the pancreas once they have been injected orthotopically in nude mice and present as a solid tumor. CD1-Foxn1/nu nude mice are orthotopically inoculated with 1×10^6 BxPC3 cells (injection of 30 μl matrigel:tumor cell suspension into the pancreas) and the tumor was allowed to establish for 7 days. […] Additional control groups were left untreated or received a control human IgG1 monoclonal antibody. The growth of internal tumors was judged by external signs (e.g. abdominal distension causing more than 20% increase in normal body weight, or a 20% loss in normal body weight) or clinical signs (e.g. dyspnoea, jaundice, neurological signs, digestive disturbances). Animals reaching the home office limit according to the UK home office guidance were sacrificed (for animal welfare reasons). The resulting survival curve was used as primary outcome of the study.

[2] = test system: A2780adr ovarian cancer cells; assay: Induction of apoptosis (caspase 3 activity) in doxorubicin-resistant ovarian cancer cells; assay type: cell-based, human; conditions: for caspase 3 activity: 72 hours of treatment
Description: The percentage increased caspase 3 activity over non-treated cells is indicated. Cells were treated with a human isotype control IgG (Control IgG), anti-MIF antibody RAM0 or RAM9 alone, a combination of control IgG and doxorubicin (Control IgG+Dox), doxorubicin alone (Dox) or a combination of anti-MIF antibody and doxorubicin (RAM0+Dox or RAM9+Dox).
The induction of apoptosis was assessed by detection of caspase 3 activity after 72 hours of treatment.

Molecule | binding of recombinant MIF proteins to coated antibody (redMIF) | binding to redMIF (redMIF) | binding to oxMIF (oxMIF) | overall survival of the mice ([1]; 60 mg/kg RAM9 in combination with 100 mg/kg gemcitabine) [%] | survival of the xenografted mice ([1]; 60 mg/kg RAM9 in combination with 100 mg/kg gemcitabine, compared to either agent alone) | Effect ([1]; Pancreatic cancer, antibody combined with Gemcitabine, In vivo) | Effect ([2]; Ovarian cancer, antibody combined with Doxorubicin, In vitro) | caspase 3 activity ([2]; agent alone) | caspase 3 activity ([2]; anti-MIF antibody in combination with doxorubicin)
B1 | none of the recombinant MIF proteins bound | do not bind; also recorded: incapable of binding to redMIF | specifically bind to oxMIF | – | – | – | – | – | –
B2 | – | do not bind; also recorded: incapable of binding to redMIF | specifically bind to oxMIF | – | – | – | – | – | –
B3 | none of the recombinant MIF proteins bound | do not bind; also recorded: incapable of binding to redMIF | specifically bind to oxMIF | – | – | – | – | – | –
B4 | – | incapable of binding to redMIF | specifically bind to oxMIF | 20 | substantial survival advantage | Synergy | Synergy | did not show any enhanced caspase 3 activity | further enhanced caspase 3 activity
B5 | – | incapable of binding to redMIF | specifically bind to oxMIF | – | – | – | – | – | –

Residue numbers refer to the chain shown, from its start. “Also recorded” adds a separate entry of the source.
